Out of some 16,000 compounds screened, about 120 (0.75%) were called active. Not shown: some 4% with an inconclusive outcome. The call rests on the fitted dose curve; in most records, active means well fitted inhibition curve with a large enough effect; inconclusive means small, poorly fitted or top-dose-only effect; inactive means no such curve, though single readings can be large or run the other way. The list shows a part of the results. A structure can be active in one record and inactive in another. Where a SMILES comes first, the peptide text is derived from it. The star is where a group is joined. X3 = NCCCC[C@@H](CN)N*
Target: Rap guanine nucleotide exchange factor 3 (Homo sapiens) (UniProt O95398)
Sequence of UniProt O95398 (O95398 whole entry, looked up): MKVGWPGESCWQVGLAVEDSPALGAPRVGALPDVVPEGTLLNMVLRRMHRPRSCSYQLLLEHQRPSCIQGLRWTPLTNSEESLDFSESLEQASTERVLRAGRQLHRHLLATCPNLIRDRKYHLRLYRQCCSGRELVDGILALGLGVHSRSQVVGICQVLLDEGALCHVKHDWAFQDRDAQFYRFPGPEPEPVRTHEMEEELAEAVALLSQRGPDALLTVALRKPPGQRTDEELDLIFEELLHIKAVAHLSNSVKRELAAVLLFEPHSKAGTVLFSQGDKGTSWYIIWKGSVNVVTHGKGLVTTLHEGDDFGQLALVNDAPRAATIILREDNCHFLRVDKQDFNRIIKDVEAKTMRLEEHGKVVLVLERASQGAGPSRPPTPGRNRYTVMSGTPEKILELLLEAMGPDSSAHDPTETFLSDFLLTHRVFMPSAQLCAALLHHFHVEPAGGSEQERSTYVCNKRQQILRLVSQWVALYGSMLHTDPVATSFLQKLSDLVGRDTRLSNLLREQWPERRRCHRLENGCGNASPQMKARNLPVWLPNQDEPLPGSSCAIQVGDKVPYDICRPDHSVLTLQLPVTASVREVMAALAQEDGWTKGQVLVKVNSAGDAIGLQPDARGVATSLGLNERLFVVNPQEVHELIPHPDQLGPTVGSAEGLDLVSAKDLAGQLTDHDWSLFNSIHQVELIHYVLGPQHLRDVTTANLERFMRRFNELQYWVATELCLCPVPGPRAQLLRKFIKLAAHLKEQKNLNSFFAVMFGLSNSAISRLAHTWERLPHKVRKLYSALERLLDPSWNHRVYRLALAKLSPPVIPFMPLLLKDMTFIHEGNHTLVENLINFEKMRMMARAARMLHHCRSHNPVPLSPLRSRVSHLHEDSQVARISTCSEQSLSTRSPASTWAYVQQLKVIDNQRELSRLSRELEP
Test: Validation qHTS for antagonist of cAMP-regulated guanine nucleotide exchange factor 3 (EPAC1); further: nearly all actives have a fitted effect of over 75% in size;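 on activity change, negative = inhibition: plate controls were DMSO for no effect and ATA control for full effect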
Settings: EPAC1 Rap1B-BODIPY-GDP exchange, fluorescence; series mostly up to 150 µM; activity change, negative = inhibition: at the top concentration
How it was run: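 Nucleotide exchange followed as fluorescence loss when BODIPY-GDP leaves Rap1B (480 nm excitation, 540 nm emission), read at 5 min intervals over 30 min. Reaction: 100 nM EPAC1, 250 nM RAP1B-BODIPY-GDP, 50 uM GDP; ATA and DMSO define normalization.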
Potency means the concentration at half of the fitted maximal effect.

Activity change, negative = inhibition, inactive:
CN(C)Cc1ccccc1-c1cncnc1Nc1ccc(F)cc1 20.1%
CCNc1ncc2ncc(=O)n(CCc3ccccc3)c2n1 12.6%
COc1nccnc1NS(=O)(=O)c1ccc(N)cc1 309%
CC(N)CCCC(C)(C)O (centres undefined) 23.9%
Cn1cc(-c2nc3cnc(Oc4ccccc4)nc3n(C3CC3)c2=O)c2ccccc21 7.29%
CCCCC[C@H](O)/C=C/[C@@H]1[C@H]2C/C(=C/CCCC(=O)O)C[C@H]2C[C@H]1O 24.7%
COc1cccc(Nc2ncc3ncc(=O)n(Cc4ccc(F)cc4)c3n2)c1 15.5%
CCCOc1ccc2nc(NC(=O)OC)sc2c1 -3.51%
N#CCC(=O)NN 11.6%
CC(=C(CCOP(=O)(O)O)SC(=O)c1ccccc1)N(C=O)Cc1cnc(C)nc1N -3.25%
COc1ccc2cc(CN(C(=O)c3cc(C)nn3C)C3CC3)c(-c3ccc(Cl)cc3)nc2c1 -12%
O=[N+]([O-])c1ccc(CSc2ncnc3c2ncn3[C@@H]2O[C@H](CO)[C@@H](O)[C@H]2O)cc1 -10.5% [at 75.8 µM]
CNC[C@@H](O)[C@@H](O)[C@H](O)[C@H](O)CO 12.4%
O=Nc1ccc2oc(=O)ccc2c1 6.91% [at 75.8 µM]
CC[C@H]1OC(=O)[C@H](C)[C@@H](O[C@H]2C[C@@](C)(OC)[C@@H](O)[C@H](C)O2)[C@H](C)[C@@H](O[C@@H]2O[C@H](C)C[C@H](N(C)C)[C@H]2O)[C@](C)(O)C[C@H](C)C(=NOCOCCOC)[C@H](C)[C@@H](O)[C@]1(C)O 23.3%
O=S(=O)(c1ccccc1)N1CCC2(CCCN(Cc3ccncc3)C2)CC1 21.2%
O=C(O)c1ccccc1S 27%
CN(C)c1ncc2nc(-c3cc(F)cc(F)c3)c(=O)n(CCC#N)c2n1 2.14%
COC(=O)N1CCC[C@@]2(CCN(c3ccccc3)C2)C1 -16.4%
C1CCc2nnnn2CC1
c1cncc(CNc2cc(-c3ccc4c(c3)OCO4)ncn2)c1 13.1%
Cn1cccc1C(=O)N1CCC[C@@]2(CCN(Cc3ccc(C#N)cc3)C2)C1 17.5%
CC1=C(C(=O)O)N2C(=O)C(NC(=O)C(N)c3ccccc3)C2SC1 (centres undefined) 20.7%
CN(C(Cc1ccc(OS(=O)(=O)c2cccc3cnccc23)cc1)C(=O)N1CCN(c2ccccc2)CC1)S(=O)(=O)c1cccc2cnccc12 (centres undefined) 42.8%
Cc1cnc(CNc2ccnc(-c3cccc(C#N)c3)n2)cn1 3.35%
COc1ccccc1CN1CCCC2(CCN(C(=O)c3cccn3C)CC2)C1 15%
COc1cccc(Cn2c(=O)c(-c3ccccc3)nc3cncnc32)c1 -3.33%
COc1ccc(/C=C/C(=O)/C=C/c2ccc(OC)cc2OC)c(OC)c1 11.3%
C[S+](C)CCC(N)C(=O)O (centres undefined) -15.2%
COc1cc(=O)n2c(c1C(=O)N(C)Cc1nonc1C)CCN(C(=O)c1ccc(C)c(C)c1)CC2 16.8%
Cc1ccc2ccccc2n1 20.8%
Cc1[nH]c(=O)c(C#N)cc1-c1ccc2nccn2c1
COc1ccc2[nH]cc(CCNc3cc(-c4cccc(C#N)c4)ncn3)c2c1 -24.4%
CN(C)c1ncc2nc(-c3ccc(Cl)cc3)c(=O)n(C[C@H]3CCCO3)c2n1 1.16%
Cc1cc2nccc(C)c2cc1C -14.1%
CC(=O)O[C@H]1C(=O)[C@@]2(C)[C@H]([C@H](OC(=O)c3ccccc3)[C@]3(O)C[C@H](OC(=O)[C@H](O)[C@@H](NC(=O)c4ccccc4)c4ccccc4)C(C)=C1C3(C)C)[C@]1(OC(C)=O)CO[C@@H]1C[C@@H]2O
CCn1c(-c2ccccc2F)nc2cc(NC(C)=O)cc(C(=O)N(C)Cc3c(C)nc4ccccn34)c21 8.89%
CS(=O)(=O)N1CCC[C@@]2(CCN(Cc3nccs3)C2)C1 11.9%
CC(=O)[O][Al][O]C(C)=O 3.89%
O=C(Nc1ccccc1)N1CC2(CCN(S(=O)(=O)c3ccccc3)CC2)C1 4.86%
CCCCCCCCOc1ccc(C(=O)c2ccccc2)c(O)c1 9.29%
CCN(CC)C(=O)[C@]1(c2ccccc2)C[C@@H]1CN 10.9%
NC1CONC1=O (centres undefined)
COC(=O)C[C@](O)(CCCC(C)(C)O)C(=O)O[C@@H]1C(OC)=C[C@]23CCCN2CCc2cc4c(cc2[C@H]13)OCO4 7.94%
CCCS(=O)(=O)NCc1c(C)ncc2c1CCN(C(=O)c1cccc(C(F)(F)F)c1)C2 -0.911%
Clc1ccc(/C=C/c2ccnc3ccccc23)c(Cl)c1 22.5%
COc1ccc2cc(CNCc3nonc3C)c(N3CCCC(CO)C3)nc2c1 (centres undefined) -23.4%
CCCCCCCCCCCCCCCCCCc1ccc(C(=O)/C=C/C(=O)O)cc1 33.4% [at 201 µM]
COC(=O)C1[C@H]2SC(C)(C)C(C(=O)OC)N2C(=O)N1Cc1ccccc1 (some centres undefined) 6.53%
CC[C@H](CC[C@@H](C)C1CC[C@H]2[C@@H]3CC=C4C[C@@H](O)CC[C@]4(C)[C@H]3CC[C@]12C)C(C)C (some centres undefined) 10.3%
COC(=O)/C=C/C(C)=C/C=C/C(C)=C/C=C/C=C(C)/C=C/C=C(C)/C=C/C(=O)O 6.15%
O=C(CCN1Cc2ccccc2OC(c2ccccc2F)C1)N1CCC(N2CCCC(O)C2)CC1 (centres undefined) 1.97%
COc1ccc(Oc2ncc3nc(-c4cn(C)c5ccccc45)c(=O)n(CCC#N)c3n2)cc1 -19.9%
Cc1cnc(CNc2ncncc2-c2ccc(C(=O)N(C)C)cc2)cn1 2.62%
CCCCN=C(N)N=C(N)N 10.2%
CS(=O)(=O)N1CCC2(CCCN(c3ccccn3)C2)CC1 13.1%
COc1ccc(CN2CCOc3ccc(CN4CCCCC4CO)cc3C2)c(OC)c1 (centres undefined) 1.71%
COc1cccc(Cn2c(=O)cnc3cnc(N4CCN(C)CC4)nc32)c1 6.93%
Cc1cnc(CNc2nc(-c3ccc(N(C)C)cc3)nc3ccccc23)cn1 -5.65%
COc1c(N2C[C@@H]3CCCN[C@H]3C2)c(F)cc2c(=O)c(C(=O)O)cn(C3CC3)c12
CCCN(CCC)CCc1cccc2c1CC(=O)N2
N=C(N)c1ccc(N)cc1 -13.3% [at 75.8 µM]
CCNc1ncc2nc(CCc3ccccc3)c(=O)n(Cc3ccc(F)cc3)c2n1 20.8%
Cc1noc(C)c1C(=O)N1CCC[C@@]2(CCN(C(=O)Nc3cccc(F)c3)C2)C1 20.5%
C/C=C/c1ccc(OC)cc1
N[C@@H](Cn1ccc(=O)n(Cc2ccccc2C(=O)O)c1=O)C(=O)O -16.5%
CC(=O)OC1CC(OC(C)=O)[C@]2(C)C(CC(OC(C)=O)[C@]3(C)C2CC[C@@]2(C)C(c4ccoc4)OC(=O)C4O[C@]432)C1(C)C (some centres undefined) -10.6%
C=C1C2CC[C@]3(CCC4[C@@]5(C)CCC[C@@]4(CN(CCO)C5)[C@@H]3C2)[C@@H]1O (some centres undefined) 12.9%
CC(C(=O)O)C1CCC2C3CC=C4CC(O)CC[C@@]4(C)C3CC[C@]12C (some centres undefined) 13.2%
Cn1c(=O)c(-c2cccs2)nc2cnc(N3CCOCC3)nc21 6.17%
C[C@H](NC(=O)CNC(=O)[C@@H](NC(=O)[C@H](Cc1ccccc1)NC(=O)CNC(=O)CNC(=O)[C@@H](N)Cc1ccccc1)[C@@H](C)O)C(=O)N[C@@H](CCCN=C(N)N)C(=O)N[C@@H](CCCCN)C(=O)N[C@@H](CO)C(=O)N[C@@H](C)C(=O)N[C@@H](CCCN=C(N)N)C(=O)N[C@H](CN)CCCCN (H-FGGFTGARKSAR-X3) 11.7% [at 15.3 µM]
CCN1CCCC1CNC(=O)c1cnn(-c2ncc(C)c(-c3ccc(F)cc3)n2)c1C(C)C (centres undefined) 18.3%
CCCCC[C@H](O)/C=C/[C@H]1[C@H](O)CC(=O)[C@@H]1C/C=C\CCCC(=O)O 13.9%
COc1cccc(Nc2ncc3nc(-c4cccs4)c(=O)n(-c4ccccc4)c3n2)c1 158%
Cc1cccc(CNc2ncnc3ccc(-c4ccc5c(c4)OCO5)cc23)c1 21.5%
CCCn1c(=O)c2[nH]c(C3CCCC3)nc2n(CCC)c1=O
Cc1cccc(C)c1NC(=O)c1cc(S(N)(=O)=O)c(Cl)cc1O 14.9%
COCC(=O)Nc1cc(C(=O)N2CC3CC4CC(C3)CC2C4)c2c(c1)nc(-c1ccncc1)n2C -7.35%
CCNc1ncc2nc(-c3ccc(OC)cc3)c(=O)n(Cc3ccc(F)cc3)c2n1 10.3%
CC(=O)N[C@@H](CSC/C=C(\C)CC/C=C(\C)CC/C=C(\C)CCC=C(C)C)C(=O)O 32.8% [at 15.3 µM]
COc1ccc(C(=O)c2coc3ccc(O)cc23)cc1 9.11%
O=C(CCNNC(=O)c1ccncc1)NCc1ccccc1
CN(Cc1ccco1)c1ncncc1-c1ccoc1 -7.65%
CCC(=O)c1ccc2c(c1)N(CCCN(C)C)c1ccccc1S2
Cc1ccccc1N1CCN(CCc2nnc3n2CCCC3)CC1 26.9%
Cc1noc(C)c1-c1cc(N(C)C)ncn1 17.9%
Cc1nc2ccccn2c(=O)c1CCN1CCC(C(=O)c2ccc(F)cc2)CC1
CC1(C)C2(Cl)C(Cl)C(Cl)C(Cl)(C(Cl)Cl)C1(Cl)C2Cl (centres undefined) 19.7%
Cc1cnc(CNc2ncncc2-c2ccc(N(C)C)cc2)cn1 -3.8%
O=C(Nc1ccc(Cl)cc1Cl)[C@@H]1CC=C[C@@H]2CCN(C3CCCCC3)C(=O)[C@@H]21 -5.66%
Nc1nc(N)c(N=O)c(OCC2CCCCC2)n1 6.1% [at 75.8 µM]
CO[C@@H]1[C@H](OC(=O)/C=C/C=C/C=C/C=C/C(=O)O)CC[C@]2(CO2)[C@H]1[C@@]1(C)O[C@@H]1CC=C(C)C 13.9%
NC(=O)c1cnccn1
O=c1c(-c2ccc(F)cc2)nc2cnc(Nc3ccccc3)nc2n1C[C@H]1CCCO1 8.12%
Cc1c(-c2ccc(Cl)cc2)noc1C1CCN(CCc2ccccc2)CC1
CC(C)(C)CC(C)(C)c1cc(Cc2cc(C(C)(C)CC(C)(C)C)cc(-n3nc4ccccc4n3)c2O)c(O)c(-n2nc3ccccc3n2)c1 13.5%

Potency, active:
CC(=O)N[C@@H](CSC/C=C(\C)CC/C=C(\C)CC/C=C(\C)CCC=C(C)C)C(=O)O 56.2 µM
O=c1c(-c2ccccc2)coc2cc(O)cc(O)c12 79.4 µM
NC(C(=O)O)c1cc(O)c(Cl)c(O)c1 (centres undefined) 56.2 µM

— PubChem BioAssay AID1645882 (National Center for Advancing Translational Sciences (NCATS), 2021)
